# According to PubChem BioAssay AID651820 (National Center for Advancing Translational Sciences (NCATS), 2012):
# Screen size: about 340,000 compounds; about 12,000 (3.5%) were called active. Inconclusive means that the source gave no clear call. Such entries were picked first, then a sample of the others. Calls follow the shape of the dose curve; as a rule, active = well fitted inhibition curve with a large enough effect; inconclusive = small, poorly fitted or top-dose-only effect, or another doubt; inactive = no such curve, though single readings can be large or run the other way. Potencies of inconclusive entries are left out as doubtful fits.
# Assay: qHTS Assay for Inhibitors of Hepatitis C Virus (HCV)
# Details: Huh7.5.1 HCVcc-Cre (HCVcc is cell-culture hepatitis C virus) infection, luciferase reporter, 44 h; activity change, negative = inhibition: at 41.8 µM (top of the series)
# Outline: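 Luciferase read-out (15 sec integration) after a 15 min room-temperature substrate step quantifies HCVcc-Cre infection. Cells, 1,000 per well, had compound added 4 h post-plating, then virus at ~0.5 moi, and were cultured 44 h.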
# % is scaled to controls: 0 for no effect and ±100 for the full control effect; potency is read from the fitted curve at half-maximal effect; tags tell the direction and shape of the fitted curve.
Compound,Potency,"activity change, negative = inhibition"
CCCN(Cc1cc2cccc(C)c2[nH]c1=O)C(=O)c1cccc(OC)c1,"inconclusive [inhibitor, partial curve]",
Nc1nnc(-c2cccc([N+](=O)[O-])c2)o1,,inactive: -4.89%
CC(=O)C1=C(C)NC(SCC(=O)c2ccccc2)=C(C#N)C1CC(C)C (stereo not given),"inconclusive [inhibitor, partial curve]",
Cc1ccccc1NC(=O)/C(C#N)=C\c1cc(C)n(-c2ccc(C(=O)O)cc2)c1C,,inactive: -8.22%
Cc1cc(C)c(C)c(OCCCn2ccnc2)c1,"inconclusive [inhibitor, single point]",
Cc1sc(NC(=O)c2cccs2)c(C(N)=O)c1C,"inconclusive [inhibitor, single point]",
CC(C)Oc1ccc(CNC(=O)Cn2c(=O)c3cccn3c3cccnc32)cc1,,inactive: -18%
Cc1ccccc1OCc1nnc(SCC(=O)Nc2ccc3c(c2)oc2ccccc23)n1C,"inconclusive [inhibitor, partial curve]",
CCOc1cccc2sc(NC(=O)c3ccc(Br)s3)nc12,"inconclusive [inhibitor, full curve]",
COc1ccc(N2CCN(C3CC(=O)N(C)C3=O)CC2)cc1 (stereo not given),,inactive: 14.5%
COc1cc2ccccc2c2c1CCCC2=O,active: 12.6 µM,
CCN(CC(=O)Nc1ccc(NC(C)=O)cc1)C(=O)/C=C/c1c(C)nn(-c2ccc(F)cc2)c1Cl,"inconclusive [inhibitor, single point]",
COc1ccc(-n2cc3ccc([N+](=O)[O-])cc3n2)cc1,"inconclusive [inhibitor, partial curve, poor fit]",
CC(Oc1ccc(Cl)cc1)C(=O)NNC(=S)NC(=O)c1ccco1 (stereo not given),"inconclusive [inhibitor, partial curve]",
CN(c1ccccc1)S(=O)(=O)c1cccc(NC(=O)CN2CCCc3ccccc32)c1,"inconclusive [inhibitor, single point]",
CN(C(=O)c1cccc(NC(=O)Cc2ccc(NC(=O)C3CCN(S(=O)(=O)c4cccc([N+](=O)[O-])c4)CC3)cc2)c1)C1CC1,"inconclusive [inhibitor, single point]",
O=C(NCc1ccco1)c1ccc(Cn2c(=O)c3sccc3n(Cc3ccc(F)cc3)c2=O)cc1,"inconclusive [inhibitor, partial curve]",
CCOC(=O)/C(N=Nc1sc(C(=O)OC)c(C)c1C(=O)OCC)=C(\O)CCl,"inconclusive [inhibitor, single point]",
CCOC(=O)/C(C(=O)Nc1ccccc1Cl)=C1/NC(C)(C)Cc2ccccc21,"inconclusive [inhibitor, partial curve]",
COc1cc(NC(=O)COC(=O)c2cc(S(=O)(=O)N3CCCCC3)ccc2Cl)c(C)cc1[N+](=O)[O-],"inconclusive [inhibitor, full curve]",
O=C(Nc1ccncc1)c1ccc(Cl)cc1,,inactive: 3.13%
COCCN(C(=O)COC(=O)c1cc2c(s1)CCC2)c1c(N)n(Cc2ccccc2)c(=O)[nH]c1=O,"inconclusive [inhibitor, partial curve]",
O=[N+]([O-])c1cc(/C=N/N2CCN(C3c4ccccc4-c4ccccc43)CC2)ccc1Cl,,inactive: -7.12%

Compound,Potency,"activity change, negative = inhibition"
CC(=O)Nc1ccc(C2=NN(Cc3nnc(-c4ccccc4)o3)C(=O)SC2)cc1,,inactive: -6.31%
O=C(CN1CCN(c2ccc(O)cc2)CC1)Nc1ccc(SC(F)F)cc1,"inconclusive [inhibitor, single point]",
O=C(COc1ccc(Nc2ccccc2)cc1)Nc1ccncc1,"inconclusive [inhibitor, single point]",
CN1CCc2nc(SCC(=O)Nc3ccc(Cl)cc3)c(C#N)cc2C1,"inconclusive [inhibitor, single point]",
CCc1ccc(NC(=O)CN2C(=O)COc3ccc(S(=O)(=O)N4CCCC4)cc32)cc1,"inconclusive [inhibitor, partial curve]",
CCn1c(=O)c(C(=O)Nc2ccccc2C)c(O)c2ccccc21,"inconclusive [inhibitor, single point]",
CCCCNC(=O)C(=O)NC(C)CCc1ccccc1 (stereo not given),,inactive: 11.6%
O=C(Nc1ccccc1)c1cc([N+](=O)[O-])ccc1Cl,"inconclusive [inhibitor, single point]",
Cc1cccc(-c2nsc(SCC(=O)c3ccc(Cl)cc3)n2)c1,"inconclusive [inhibitor, single point]",
CCc1ccccc1NC(=O)c1cc2ncc(Br)cn2n1,,inactive: -6.53%
O=C1CC(N2CCN(c3ccc(O)cc3)CC2)C(=O)N1Cc1cccs1 (stereo not given),,inactive: 1.73%
CCOC(=O)c1c(C)nc2sc(C(=O)Nc3ccccc3)c(N)c2c1-c1ccc(OC)cc1,active: 6.31 µM,
Cc1cccc2cc(-c3ccccc3)c(-c3ccccc3)c[n+]12,"inconclusive [inhibitor, full curve, poor fit]",
CCOc1cc(C2Nc3ccccc3NC3=C2C(=O)CC(C)(C)C3)ccc1O (stereo not given),,inactive: -9.25%
O=C(Nc1ccn(Cc2ccccc2F)n1)c1ccc(COc2cc(Cl)ccc2Cl)o1,"inconclusive [inhibitor, full curve]",
COC(CNC(=O)c1ccc2nc(-c3cccs3)c(-c3cccs3)nc2c1)OC,"inconclusive [inhibitor, single point]",
Cc1cccc(NS(=O)(=O)c2ccc(-c3ccc(=O)[nH]n3)o2)c1,,inactive: 13.6%
O=C(Cn1cc(C(=O)c2ccco2)c2ccccc21)NC1CCCCC1,,inactive: -18.6%
COc1cccc(O)c1CN1CCC(Oc2ccc(C(=O)NCc3ccccn3)cc2)CC1,,inactive: -4.35%
Cc1cc(NC(=O)CSc2nnc(-c3ccncc3)n2C)n(-c2ccccc2)n1,,inactive: 9.05%
CCOC(=O)c1ccc(N2CN(CC)CNC2=S)cc1,"inconclusive [inhibitor, single point]",
COc1ccc(-n2c(COc3ccc(C)cc3)nnc2SCc2ccc(C#N)cc2)cc1,active: 22.4 µM,
